# Assay results: the supplement of paper PMC11417369
# This is one part of the list.
# System: PF3D7_0420300 AP2 domain 1 (GST-tagged)
# Assay: gcPBM binding intensity (ln(normalized median fluorescence intensity)); higher = stronger DNA binding
# How it was run: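 An Agilent 4 × 180k array of primer-extended double-stranded 36-bp intergenic genomic probes, with negative controls, was incubated for 1 h with GST-tagged P. falciparum DNA-binding domains expressed in E. coli. Alexa488 anti-GST antibody detected bound protein, scanned at 488 nm. Binding intensity is the highest Masliner-normalised natural-log median intensity across replicate spots of either probe orientation.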
row,Sequence,gcPBM binding intensity (ln)
1,TATTTTACGACATACCAAAAAAAAAAAAAAAAAATA [CACACA_negctrl_site1254],9.23
2,TAAATCCGCAGGCACACACACATATTAATAAAAAAA [CACACA_site3991],9.77
3,AATGTTAAACTATGATGTACGGTTAAAAATATAATT [XGTACX_site893],9.42
4,TGATATTATAGATATACACACATGTATGTATTTATA [CACACA_site6758],9.4
5,AAATTTAGTAAAAAATGTACGTAAAATGTAAAATAT [XGTACX_site1314],9.48
6,ATACTAACATTTTTTTGTACATATAACTATAAAATA [XGTACX_site1033],9.16
7,AAGGTAAACGGACACACACACATACAAAAAAAAAAA [CACACA_site5961],10.1
8,ATATATATGTATGTATATATATATATATATGTTTGA [CACACA_negctrl_site107],9.28
9,TTTTTTTTTCTGTATACACACAAAATTTATTTTTTA [CACACA_site2873],9.38
10,TTAATAACGTAATGTAAATGTTTCATACCCTTTTTT [CACACA_negctrl_site988],9.16
11,AAAGAAGGGGGGGGAAAAAAAAATAAAAGAGGAAAA [XGTACX_negctrl_site92],9.59
12,ATAAAATAAAAACATGCACACTTTATTTTTTTTAAG [CACACA_site5545],9.25
13,TGGGGTATTAAAAAAACACACAAAAAAAATATAAAG [CACACA_site1915],9.43
14,GATAATAATAAGTGTACACATATATTTAGAAGAGTA [CACACA_site4245],9.39
15,AAAATGTATATTGGCGCATGTAAACAAATACTATAC [TGCATGCA_site385],9.44
16,TCCTCATTTTATCATACACACTTGTTTATATGTGTG [CACACA_site6548],9.56
17,TATATATATATAATTTGTACACACAAATATGCATAT [XGTACX_site7297],9.38
18,ATATATAATAATTGTAGTACAATTAATAAATAAAAT [XGTACX_site3840],9.42
19,ATACGATTGCAGTCAAAAAGGAAAATATAAAAAAAG [XGTACX_negctrl_site124],9.2
20,AATATTTATAAATTTACACACACACCCGTGAACATA [CACACA_site1910],9.96
21,TTATCATTTTAAATCACACACATATATAAATATGTA [CACACA_site7359],9.32
22,CACATAAATAATTAAACACACATTGTTCTAGACAAT [CACACA_site2378],9.61

row,Sequence,gcPBM binding intensity (ln)
1,TTTGAGTTACTATTCACACAAAATGGATAAATTAAT [CACACA_site5626],9.1
2,TATATAGGTATATATACACACAACGGTTATAAATAT [CACACA_site4759],9.74
3,TATAAAGACACGAAAACACACATATGTAAATATATA [CACACA_site8056],9.75
4,AGGATAAAAGTTATGGTGCATTAACCTATTTAAATA,9.14
5,TACATATTACTATTCAGTACATATTTTTTTTTCATT [XGTACX_site7468],9.33
6,TAGTTTTGAAAACAAACACACAAAAAAAAAAAAAAA [CACACA_site1692],9.05
7,AATATAAAAAATAATACACACACATGGCGACAAAAT [CACACA_site8765],10.2
8,ATGTAAGTAATTATCTGTACACATAATATATATATA [XGTACX_site2618],9.33
9,AATAATAAAAAAAGTGCACACACATAATATATATAT [CACACA_site9100],9.82
10,AACAATATATTGATATTATTTTAAGTGATTATATAT [XGTACX_negctrl_site205],9.22
11,TATAAAAAAATAAAAGGAATATACTTGCAAAGGGTA [CACACA_negctrl_site1438],9.61
12,TTTCAAATGATTAAGTGTACATGTTTGCTTGCTCTT [XGTACX_site4697],9.24
13,TTTTTTTTTGTTATGTTGCACTTTGCCATATTATTA [GTGCAC_site9844],9.45
14,AATTTTATTACTTTTACACACCTATATATCATTCAT [CACACA_site7525],9.76
15,TAGGGATTATACCACACACACATACACATAAATATA [CACACA_site3178],9.96
16,AAGAATAAGGAAAAATGTACAGAATGCACATATGAA [XGTACX_site4705],9.4
17,ACCTTAAATAATACATGTACAAAAAAATTTATAATA [XGTACX_site1043],9.2
18,AAAAAAAATACAAAAAGTACAAAAAATACAAAAAAA [XGTACX_site8844],9.64
19,ATGTATATATATATATGTACATATTTTTTATATGTA [XGTACX_site441],9.2
20,TTCTTTTTTTAAAGAAGTACTATATTTTAAATTATA [XGTACX_site5059],8.83
21,TTTAAAATAAATTAATAGAACAAAAATAAAATGATT [GTGCAC_negctrl_site375],9.39
22,TTAAATAATGCCACCAGTACCCACTGAAAGAAAAAA [XGTACX_site5013],9.23

row,Sequence,gcPBM binding intensity (ln)
1,CAATTGATATTGAAATGTACTTTTTAGATGAACCTT [XGTACX_site2354],8.96
2,TATATTAAAATTTACTGTACTTTTTTTATTTTAAAA [XGTACX_site4077],8.92
3,AAAGATATAAATTACTGTACTAATGAAATTGGTAAA [XGTACX_site3582],9.15
4,ATATTAAAATTTTAATGTACATGCGTATGTAGGAAT [XGTACX_site1673],9.44
5,TATATTATATTTTTATGTACTTATTTATTTTGTTTC [XGTACX_site6145],9.46
6,AACATATATTTTTAATGTACAAGGTTGTAAAGAACT [XGTACX_site1405],9.25
7,ATGTATATATTCAATTGTACATGTTATATTTACACA [XGTACX_site1125],9.25
8,ATTGTATTAAAATGCACACATATCAAGAGGAATTTT [CACACA_site283],9.22
9,AAAGAATAATTAAATACACACATATTGCAGTAAAAA [CACACA_site7201],9.69
10,TGTAAAATATAAAAAGTGCATTTCTTTTAATATGAT,9.1
11,TTCTGTCAATATGCTTGTACGAAATATTTCGTAATT [XGTACX_site3182],9.4
12,ATAAATAAATACTAGGCACACACACCGATATATATA [CACACA_site8649],10.1
13,TATTAATCCTTTTGCTTGGAAACATTCAAAAGGAAG [CACACA_negctrl_site1129],8.69
14,AAAATAAACCCAGACACACTCATTAAAAAATATCAT [CACACA_site5903],9.6
15,ATATATATAAAATATGGTACAGAAAAAGTCTTGTTT [XGTACX_site8868],9.53
16,AATCCTTAAAATTAACGTACGAAATGAATTTATTAA [XGTACX_site956],8.96
17,TGGAGGTCATTACACAGTACCCAGGAAATCTACGGA [XGTACX_site2004],9.08
18,AAACCGTGGGAGCACACACACACACCCACCCATATA [CACACA_site332],10.2
19,ATAATAACAAAATATTAACACACATAACATATTATA [CACACA_site8906],9.71
20,ACAAAACAAAACAAAAGTACACAAAATAAATAAGAT [XGTACX_site6497],9.92
21,AAAGTTTTTATAAAAAAAAAAATAAATACCATATAT [XGTACX_negctrl_site113],9.31
22,GTGTTTTTATGTGAATGTACATATTTACTATCACAC [XGTACX_site2388],9.56

row,Sequence,gcPBM binding intensity (ln)
1,AAAAGTTTAAGTTTTCGAAAATTTACCAAAAAAAAA [CACACA_negctrl_site1644],9.06
2,AATCCTTACGAACACACACACACGAATAAATAAAAA [CACACA_site6363],10.1
3,TAGAATTAAGTTATTGCACACAGGAAAAGTTTCATA [CACACA_site1634],9.32
4,TCTTCGAAACTATCACTCTCACAATTCATTTATTTT [TGCATGCA_negctrl_site156],9.3
5,ATAAATAAGAAAAATTGTACAATATTTTTTAGGATA [XGTACX_site3163],9.21
6,ATATACATTAAATGAACACACATAAATAAATTACAT [CACACA_site2852],9.62
7,TTTTAATTTTGTTGTTGTACAAATAACATGTGAGGG [XGTACX_site4401],9.06
8,TATTTTATCATTTTTTTTATGTCTTTATTTCACTTG [CACACA_negctrl_site1398],9.43
9,CTGTGTTTTGGTTGTACACACGCTACATTATATATT [CACACA_site5487],9.79
10,AACACATAAAAAAGGTGTACCATAAAATATACATAC [XGTACX_site4478],9.58
11,CTCATTTTTGTACAGGTGCACTTATCGTTACACTAT,9.52
12,ATATATATATATATATCATTTATTTAAAAATTTTTT [TGCATGCA_negctrl_site228],8.96
13,ATATACACATTAATAACACACAATATGATAACAAAT [CACACA_site7670],10
14,GTCTAAAAATAAAAAGTGCATTTGTTTAATATTTTG,9.25
15,TGATTGTATTAAAATGCACACATATCAAGAGGAATT [CACACA_site7985],9.41
16,TTAATTTTTTTTTTTTGTACTCATATGTAATTCATC [XGTACX_site3071],9.16
17,ATTAAAACAAATATGTGTACATAAAAATATATATAT [XGTACX_site8394],9.54
18,TATTATTATTATTATTTTAAAAGAAATAAAAATATG [XGTACX_negctrl_site119],8.74
19,TTAATAAATATGTTTACACACGAAAATACATTTTTT [CACACA_site8245],9.27
20,TTAAAAGTTATGGATACACACATATAAATATAGATT [CACACA_site7175],9.46
21,TCGATTAAAACACAAAAATATAAATACATTGATAAA [TGCATGCA_negctrl_site523],9.14
22,TAATTTTCATAATTTTGTACTTAACGTTTTACCTTG [XGTACX_site8048],9.27
